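Assay format: 96-well plates, 48-hour exposure. Abbreviation: GI50, concentration required for 50% inhibition of growth.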 Calls of active or inactive are those of the source. Rule as the data show it: active = GI50 up to about 1.1 µM and inactive = higher. A value given as a limit tells only on which side of the number the result lay.

The experiment concerns NCI-H322M. Nature of the experiment: inhibition of tumour cell growth, NCI panel, 48 h.
For `CC(C)(C)OC(=O)NCCCCC1NC(=O)[C@@H]2Cc3c([nH]c4ccccc34)C(c3ccccc3)N2C1=O` (stereo not given in full), the GI50 was inactive: 41.7 µM.

Consider `O=[N+]([O-])c1cccc(CSc2nc(O)c3nc[nH]c3n2)c1`, for which the GI50 was inactive: > 100 µM.

For `Nc1nc(-c2cccnc2)cc(-c2cc(-c3cccnc3)nc(N)n2)n1`, the GI50 is inactive: > 100 µM.

Consider `Cc1ccc(S(=O)(=O)N[C@H](C(=O)O)c2ccccc2)cc1`, for which the GI50 was inactive: > 100 µM.

On to `CC(C)(C)C=C=C(C(C)(C)C)P(=O)(O)O`, for which the GI50 is inactive: > 100 µM.

Regarding `C[C@]12CCC(=O)C=C1C[C@@H](O)[C@@H]1[C@@H]2CC[C@@]2(C)[C@H]1CC[C@]2(C)O`, the GI50 is inactive: > 100 µM.

With `S=C(N/N=C/c1ccccn1)N1CCCCC1`, the GI50 was active: < 0.01 µM.

For `C1CSCCSCCS1`, the GI50 was inactive: > 100 µM.

With `Cc1ccc(N/C(SCc2ccccc2)=C(\C(Cl)=C(Cl)Cl)[N+](=O)[O-])c(C)c1`, the GI50 is inactive: 45.3 µM.

In the case of `O=C1NC(=O)c2ccc([N+](=O)[O-])c3cccc1c23`, the GI50 was inactive: 18.6 µM.

As to `CN1CC2CN(Cc3ccccc3)CCN2c2cccnc21` (stereo not given), the GI50 was inactive: > 100 µM.

Consider `O=C1NC2(CCCCC2)C2CCCCCC12` (stereo not given), for which the GI50 was inactive: > 100 µM.

Regarding `Cc1c(C(=O)O)sc2nc[nH]c(=O)c12`, the GI50 was inactive: > 100 µM.

Turning to `NS(=O)(=O)c1c(O)c2ccccc2oc1=O`, the GI50 is inactive: > 100 µM.

Consider `CCOC(=O)c1nc2ccccc2nc1Nc1ccc(OC)cc1`, for which the GI50 is inactive: 69 µM.

On to `Cc1cccc(C(=O)O)c1CC1NCCC2c3ccccc3NC12` (stereo not given), for which the GI50 was inactive: > 100 µM.

As for `CCOC(=O)C1C(=O)CC(=O)C2CCCCC21` (stereo not given), the GI50 was inactive: > 100 µM.

In the case of `c1ccc2c3c([nH]c2c1)[C@H]1C2CCCCN2CN1CC3` (stereo not given in full), the GI50 was inactive: 83.4 µM.

As for `Cc1ccc(S[C@@H](C)[C@@](O)(CF)CN(Cc2ccccc2)C(=O)C(F)(F)F)cc1`, the GI50 is inactive: 23.7 µM.

On to `NCP(=O)(O)OCC(=O)O`, for which the GI50 is inactive: > 100 µM.

Regarding `c1cc(-c2cn3ccsc3n2)ccn1`, the GI50 was inactive: > 100 µM.

Consider `CC(C)CCc1c(Cl)nc(Cl)nc1Cl`, for which the GI50 was inactive: 17.3 µM.

As to `C[C@@H](c1ccccc1)N1CO[C@@]2(C#Cc3ccc4c(c3)OCO4)CCC[C@@H]12`, the GI50 was inactive: 22.9 µM.

For the molecule `COCn1cc(C2=C(C)C(=O)C(C)=C(C)C2=O)cn1`, the GI50 was inactive: > 100 µM.

Consider `Cc1c(C#N)c(=O)[nH]c(=O)n1CCN1CCN(C(=O)NCCCCCCNC(=O)N2CCN(CCn3c(C)c(C#N)c(=O)[nH]c3=O)CC2)CC1`, for which the GI50 is inactive: > 100 µM.

Take `Cc1ccc(/N=N/c2c(C)nn(-c3ccccc3)c2C)c(Br)c1`: the GI50 was inactive: > 100 µM.

Regarding `COc1ccc([C@]23CCN4COC[C@@H]([C@H]42)C2(CC3)OCC(C)(C)CO2)cc1OC`, the GI50 is inactive: > 100 µM.

As to `O=C1NCCN1/N=C/c1c(Cl)n(-c2ccccc2)c2ccccc12`, the GI50 is inactive: 17.2 µM.

Consider `N#CC(NNC(=O)c1ccccc1O)c1cccc(O)c1` (stereo not given), for which the GI50 is inactive: 19.3 µM.

`CCOC(=O)C(c1ccsc1)P(=O)(OCC)OCC` (stereo not given): the GI50 is inactive: 17.3 µM.

Take `Cc1c(F)c(N)c2c(=O)cc(-c3ccc(NC(=O)[C@@H](N)CCCCN)c(F)c3)oc2c1F`: the GI50 was inactive: 13.3 µM.

In the case of `C=CC(C)(C)c1c(OC)oc2ccc(OC)c(C)c2c1=O`, the GI50 was inactive: > 100 µM.

With `FC(F)(F)c1cccnc1Sc1nc2ccccc2s1`, the GI50 was inactive: > 100 µM.

Consider `CCOC(=O)C/C(N)=C(\C#N)C(=O)OCC`, for which the GI50 is inactive: > 100 µM.

Take `CC(C)(C)NC(=O)[C@H]1CC[C@H]2[C@@H]3CC=C4NC(=O)CC[C@]4(C)[C@H]3CC[C@]12C`: the GI50 is inactive: > 100 µM.

As to `COc1ccc(-n2c(=O)n(C)c(=O)n2-c2ccc(OC)cc2)cc1`, the GI50 was inactive: > 100 µM.

With `CCOP(C)(=O)C(Nc1ccc(F)cc1)c1ccc(F)cc1` (stereo not given), the GI50 was inactive: > 100 µM.

Regarding `COc1ccc(N2C(=O)[C@@H]3[C@H](C2=O)c2[nH]c4ccccc4c2C2CCC(C(C)(C)C)C[C@@H]23)cc1` (stereo not given in full), the GI50 was inactive: 34.4 µM.

In the case of `c1ccc2c(OCC3CO3)ccc(OCC3CO3)c2c1` (stereo not given), the GI50 was inactive: 10.6 µM.

Turning to `N#CC1C(C#N)C2(c3ccccc3)C(c3ccccc3)=NN(c3ccccc3)CC12` (stereo not given), the GI50 was inactive: > 100 µM.

Turning to `CC1=COC(=O)c2ccccc2N1`, the GI50 is inactive: > 100 µM.

`O=C(Nc1cccc2ccccc12)c1cc2ccccc2oc1=O`: the GI50 was inactive: > 100 µM.

With `CCOC(=O)C(NC(=O)c1cccc(Cl)c1)(Nc1cccc(C)c1)C(F)(F)F` (stereo not given), the GI50 is inactive: 24 µM.

Take `CC(=O)OCC1OC(n2c3c(cc(C#N)c2=S)CCC3)C(OC(C)=O)C(OC(C)=O)C1OC(C)=O` (stereo not given): the GI50 was inactive: > 100 µM.

As for `Cc1ccc(NC(=O)CC2C(=O)Nc3ccccc3S2(=O)=O)cc1C` (stereo not given), the GI50 was inactive: > 100 µM.

`CC1(C(=O)Nc2ccc3cc4ccccc4cc3c2)CC2(C)CC(C)(C1)C(O)NC2=O` (stereo not given): the GI50 was inactive: > 100 µM.

In the case of `C=C1C(=O)O[C@H]2[C@H](OC(C)=O)[C@@H](C)CCC/C(C)=C/CC[C@@]3(C)O[C@@H]3C[C@@H]12`, the GI50 is inactive: 7.45 µM.

`O=C1c2ccccc2C(=O)N1CCCCCCNOCCCN1C(=O)c2ccccc2C1=O`: the GI50 is inactive: > 100 µM.

On to `O=C(/C=C/c1ccccc1Cl)c1cccc2ccccc12`, for which the GI50 is inactive: 15 µM.

Consider `Cc1cc2[nH]c3c(C#N)c4c(c(=O)n3c2cc1C)CCCC4`, for which the GI50 is inactive: > 100 µM.

Consider `CCOC(=O)C(=O)Nc1ccc(Cl)c(C(F)(F)F)c1`, for which the GI50 is inactive: > 100 µM.

Regarding `CC(=O)OC1(C)C(=O)OC1(C)C(C)=O` (stereo not given), the GI50 was inactive: > 100 µM.

`Cc1cc(NS(=O)(=O)c2ccc(NC(=O)c3cccc4c(NNc5ccc(S(=O)(=O)N=C(N)N)cc5)c5ccccc5nc34)cc2)no1`: the GI50 is inactive: 46.8 µM.

As to `CCOC(=O)[C@H]1Nc2ccc(OC)cc2C2c3ccccc3CC21` (stereo not given in full), the GI50 was inactive: > 100 µM.

For the molecule `COC(=O)[C@H](Cc1c[nH]c2ccccc12)NP(=O)(O)OC[C@H]1O[C@@H](n2cc(C)c(=O)[nH]c2=O)C[C@@H]1N=[N+]=[N-]`, the GI50 was inactive: > 100 µM.

Turning to `CCOP(=O)(C/C(O)=C1\C(=O)C(CCCNC(=O)OC(C)(C)C)N(Cc2ccc(OC)c(OC)c2)C1=O)OCC` (stereo not given), the GI50 is inactive: > 100 µM.

Consider `COC(=O)C1=C(O)C(C(=O)OC)[C@@]2(O)[C@@H](C(=O)OC)C(c3ccc(OC(=O)/C=C/c4ccccc4)cc3)C[C@@H]1[C@@H]2C(=O)OC` (stereo not given in full), for which the GI50 was inactive: 13.3 µM.

Consider `C=CCOn1c(C=C)nc2ccc(C)cc21`, for which the GI50 is inactive: 18.6 µM.

With `O=C1c2scc(-c3ccc(F)cc3)c2-n2cccc21`, the GI50 is inactive: 48.9 µM.

On to `COc1cccc(/C=C2\CCC(CCN(C)C)(C3=CCCC3)C2=O)c1` (stereo not given), for which the GI50 is inactive: 16.6 µM.
